Laboratory results reported in the supplement of paper PMC10338343.
± gives the standard deviation. Over roughly 3,000 sequences, “pre-steady-state target cleavage rate” has its median near 0.0079; the highest 2% begin near 0.2. This is a selection; strong and weak results do not stand in their true shares.

Test system: MILI (PIWIL2) piRISC loaded with piRNA #2 (26 nt)
Assay: pre-steady-state target cleavage rate (min^-1); MIWI and MILI are mouse PIWI proteins and EfPiwi is from a freshwater sponge; tags in brackets are library labels; higher = faster piRNA-guided slicing of the target
Details: guide: piRNA #2 5'p-UUAGGUAACCCAGUAGAUCCAGAGGA; auxiliary factor: 500 nM mouse GTSF1
Protocol: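 Cleave-'n-Seq: a library of target RNAs (target site embedded in constant flanks, ACAGCATTCCGCGTTAGTGATATCCG... 5' flank; DNA-blocked outside the site) at 0.1 nM was incubated with 1 nM active mouse MILI or MIWI piRISC (synthetic 5'-monophosphorylated piRNA guide) with or without 500 nM mouse GTSF1 at 33 °C for 1 min to 16 h. Uncleaved targets were sequenced and normalised to non-target controls, and the pooled three trials were fitted to a burst-and-steady-state model to give the pre-steady-state cleavage rate (min^-1; k3 is constrained to at most 1e-4). Sequence is the target site only; target names encode pairing extent (gX:gY) and contiguous / 1-mismatch / 2-mismatch / bulge geometry. Fits with R² ≤ 0 are excluded.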

Sequence | pre-steady-state target cleavage rate
CUUAAUCUCUGGAUCUACUGGGUUACCUAA | 0.0853 ± 0.015
CUUAUCCUCUGGAUCUACUGGGGUACCUAA | 0.0107 ± 0.0053
CUUAAGCUCUGGUACUACUGGGUUACCUAA | 0.166 ± 0.051
CUUAAGGAGUGGAUCUACUGGGUUACCUAU [g2:g21:cont:t1U] | 0.0492 ± 0.015
CUUAACCACUGGAUCUACUGGGUUACGUAA | 0.0189 ± 0.0069
CUUAACCUCUGGAUCUACUGGGUUAGCUUA | 0.106 ± 0.027
CUUAACCUCUGGAUCUACUGGGUUUCGUAA | 0.128 ± 0.044
CUUAAGGAGUUGAUCUACUGGGUUACCUAA | 0.00432 ± 0.0026
CUUAAGCUCUGGAUCUACAGGGUAACCUAA | 0.0226 ± 0.0075
CUUAUCCACUGGAUCUACUGGGUAACCUAA | 0.0345 ± 0.0086
CUUAAGGUCUGGAUCUACUGGGUUCACCUAA | 0.0401 ± 0.013
CUUAAGGUCUGGUCUACUGGGUUACCUAA | 0.00576 ± 0.0047
CUUAAGCUCUGGAACAACUGGGUUACCUAA | 0.0254 ± 0.0096
CUUAAGGUGUGGAUCUACUGGGUUACCAAA | 0.0115 ± 0.0056
CUUAUCCUCUGGAUCUACACGGUUACCUAA | 0.0118 ± 0.0023
CUUAAGCUCUGGAUGUACUGGGUUACGUAA | 0.0334 ± 0.011
CUUAACCUCUGGAUCCACUGGGUUACCUAA | 0.0558 ± 0.013
CUUAAGCUCUGCAUCUACUGGGUUAGCUAA | 0.0651 ± 0.016
CUUAAGCUCAGGAUCUACUGGGUUACGUAA | 0.00969 ± 0.0055
CUUAUCCUCCGGAUCUACUGGGUUACCUAA | 0.0892 ± 0.028
CUUAUCCUCUGGAUCUACAGCGUUACCUAA | 0.0168 ± 0.0039
CUUAUCCUCUGGAUCAACUGGGUUACCAAA | 0.0632 ± 0.013
CUUAAGGACUGGAUGUUCUGGGUUACCUAA | 0.0125 ± 0.011
CUUAUCCUCUGGAUCUACUGUGUUACCUAA | 0.0367 ± 0.0067

Sequence | pre-steady-state target cleavage rate
CUUAAGGUCUGGAUCUAGUGGGAUACCUAA | 0.00834 ± 0.0047
CUUAUCCUCUGGAACUACUGGGAUACCUAA | 0.0433 ± 0.021
CUUAAGGACUGGAUCUGCUGGGUUACCUAA | 0.0168 ± 0.012
CUUAAGGUCUGCAUCUAGUGGGUUACCUAA | 0.0418 ± 0.012
CUUAUCCUCUGGAUCUACAGGGAUACCUAA | 0.0435 ± 0.011
CUUAACCUCUGGAUGUACAGGGUUACCUAA | 0.102 ± 0.013
CUUAUCCUCUGGAUCUACUGGGUUGCCUAA | 0.0855 ± 0.017
CUUAAGGACUGGAUCUAGUGGGUUACCAAA | 0.0168 ± 0.0085
CUUAAGCUCUGGAUCUACUGGGUUAGGUAA | 0.028 ± 0.012
CUUAAGCUCUGGAUGUACAGGGUUACCUAA | 0.081 ± 0.011
CUUAAGCUCUGGAUCAACUGGGUUACGUAA | 0.021 ± 0.0077
CUUAUCCACUCGAUCUACUGGGUUACCUAA | 0.15 ± 0.02
CUUAACCUCUGGAUGUACUGGGUAACCUAA | 0.0449 ± 0.015
CUUAAGCUCUGGAUCUAGAGGGUUACCUAA | 0.0158 ± 0.0045
CUUAAGGAGUGGAUCUACAGGGUAACCUAA | 0.0275 ± 0.0089
CUUAUCCUCAGGAUCUAGUGGGUUACCUAA | 0.0524 ± 0.012
CUUAUCCUGUGGUUCUACUGGGUUACCUAA | 0.0695 ± 0.015
CUUAUCUUCUGGAUCUACUGGGUUACCUAA | 0.154 ± 0.019
CUUAUCCUCUCGAUCAACUGGGUUACCUAA | 0.105 ± 0.023
CUUAUCCUCACGAUCUACUGGGUUACCUAA | 0.139 ± 0.031
CUUAAGGUCUGGAUCUAAUGGGUUACCUAA | 0.0668 ± 0.011
CUUAAGGUCUGGAUCUACCGGGUUACCUAA | 0.0239 ± 0.006
CUUAAGGAGUGGAUCUACACGGUUACCUAA | 0.00609 ± 0.0034
CUUAAGCUCUCCAUCUACUGGGUUACCUAA | 0.0739 ± 0.014

Sequence | pre-steady-state target cleavage rate
CUUAUCCUCAGGUUCUACUGGGUUACCUAA | 0.134 ± 0.029
CUUAAGGAGACCUAGUACUGGUUACCUAA | < 0.0001
CUUAAGCUCUGGAUGAUCUGGGUUACCUAA | 0.0295 ± 0.013
CUUAUCCUCUGGAUCUUCUGCGUUACCUAA | 0.0103 ± 0.0033
CUUAACCUCUGGAUCUACUGGGGUACCUAA | 0.00532 ± 0.0045
CUUAUGCUCUGCAUCUACUGGGUUACCUAA | 0.0742 ± 0.014
CUUAAGCUCUGGAUCUACUGGGCUACCUAA | 0.0256 ± 0.01
CUUAACCUCUGGAUCUACUGGGUUACUAA | 0.185 ± 0.044
CUUAAGGAGAGGAUCUACUGGGUUACCUAG [g2:g20:cont:t1G] | 0.00782 ± 0.0038
CUUAAGGUCUGGAUCUACUGAGUUACCUAA | 0.0245 ± 0.0086
CUUAAGGAGUGGAUCUACUGGGUAACCUAA | 0.0142 ± 0.0077
CUUAACCAGAGGAUCUACUGGGUUACCUAA | 0.0108 ± 0.0053
CUUAACGUCUGCAUCUACUGGGUUACCUAA | 0.126 ± 0.02
CUUAAGCUCAGGUUCUACUGGGUUACCUAA | 0.0695 ± 0.021
CUUAUCCUCUGGAUCAACUGGGUUACGUAA | 0.0127 ± 0.0051
CUUAUCCUCUGGUUCUACUGGGUUACCUAA | 0.469 ± 0.1
CUUAAGGUCUGGAUCUACGGGUUACCUAA | 0.0103 ± 0.005
CUUAAGCUCUGGAGUCUACUGGGUUACCUAA | 0.071 ± 0.018
CUUAUCCUCUGGAUCUUCUGGGUUAGCUAA | 0.0465 ± 0.014
CUUAUCCUACUGGAUCUACUGGGUUACCUAA | 0.0814 ± 0.019
CUUAUCGUCUGGAACUACUGGGUUACCUAA | 0.072 ± 0.012
CUUAAGGUCUGGAUCAACUGGGAUACCUAA | 0.011 ± 0.0062
CUUAAGCUCUGGAUCUACUGGGUCACCUAA | 0.00519 ± 0.0039
CUUAAGGACUGGAUCUACUGGGAUUACCUAA | 0.0116 ± 0.01
